Laboratory results reported in ChEMBL document CHEMBL4888484, “Replenishing the malaria drug discovery pipeline: Screening and hit evaluation of the MMV Hit Generation Library 1 (HGL1) against asexual blood stage Plasmodium falciparum ,using a nano luciferase reporter read-out” (2022).
The whole screen tested about 150,000 compounds, of which about 540 (0.36%) showed an effect of 50% or more. Some of the results follow.

tested on: Plasmodium falciparum; assay: Primary screen in NF54 nanoGlo assay, in single point, at 2uM, 72h; a lower Z score goes with more inhibition; assay type: functional, Erythrocyte; settings: timepoint 72 hour

SMILES | % Inhibition [%] | Z score
CN1C(=O)[C@H]2CN(c3ncc(C#N)c(N)n3)C[C@H]2C1=O | -16 | 1.76
O=C(CC(c1ccccc1)c1ccccc1)N1CCNCC1 | -9 | 1.24
CC(C)C(O)CC(=O)NC(C)(CO)C1CCCCC1 (stereo unspecified) | 25 | -2.82
COCCn1cc(C(=O)Nc2cc(OC)ccc2N2CCCC2=O)c2ccccc2c1=O | -13 | 1.56
O=C(Nc1cccnc1-c1ccccc1)N1CC[C@H](O)C1 | -3 | 0.36
COc1ccc(C2=C[C@@H](c3ccccc3F)n3ncc(C(=O)Nc4ccc(Cl)cc4)c3N2)cc1 | -9 | 1.39
CN(C)c1ccc(NS(=O)(=O)C2CON(C)C2c2cccc(OCc3ccccc3)c2)cc1 (stereo unspecified) | -14 | 1.86
Cc1cnc(C)c(NCc2ccc(N(C)C(=O)c3ccncc3)cc2)n1 | -4 | 0.4
CCn1nccc1S(=O)(=O)N1CC[C@@]2(CCCN(CC3CC3)C2=O)C1 | 8 | -1.1
Cc1nc(CN2CCC[C@H](Cc3nc4ccccc4[nH]3)C2)co1 | 19 | -2.55
O=C(CC1CCC1)N1C[C@H](Nc2ncccn2)[C@@H](C2CC2)C1 | -17 | 1.76
O=C1C2CCCN2C(=O)N1C1CCCC1c1ccc(F)cc1 (stereo unspecified) | -1 | 0.17
Cc1ccc(C(=O)NCCc2ncc(C)n2C2CCCCC2)cn1 | -2 | 0.31
CN(C)CCN(C)c1nc(CC2CC2)nc2c1CCN(C)CC2 | 4 | -0.53
CC(C)c1ccc(NC(=O)[C@]2(C)CCCCC(=O)N2)cc1 | -14 | 1.6
COc1ccc(N2CCCC2=O)c(NC(=O)CCc2ccccc2)c1 | -10 | 1.27
Cc1nc2c([nH]1)CN(CC(=O)NCc1ccccc1F)CC2 | -7 | 0.85
COc1cccc(C2=NS(=O)(=O)N(C)C(C(=O)N3CCCC[C@@H]3C)=C2)c1 | 2 | -0.26
CNc1cc([C@H]2C[C@@H](NS(=O)(=O)c3c(C)noc3C)C2)nc(N)n1 | 18 | -2.32
CC1(C)NC(=O)N(CC(=O)NC(c2cccs2)[C@H]2C[C@@H](O)C2)C1=O (stereo partly specified) | -7 | 1.15
CCN1C[C@@H](COC(=O)c2cnn(-c3ccc(F)cc3F)c2)CC1=O | -1 | 0.28
CNC(=O)c1nc(C(C)(C)NC(=O)c2ccc(C)nc2)nc2c1OCO2 | 3 | -0.38
CC(C)(C)OC(=O)N[C@@H](CC(=O)O)c1ccsc1 | -3 | 0.66
COc1ccc(NC(=O)C2[C@@H]3C=C[C@]4(O3)C(C(=O)NC3CCCC(C)C3C)N(CCN3CCCCC3)C(=O)[C@H]24)cc1 (stereo partly specified) | -3 | 0.31
OCCOc1ccccc1-c1nccn1CCc1cccc(F)c1 | 2 | -0.42
Cc1ccsc1C(=O)N1C[C@H]2CCN(C(C)C)C[C@@]2(CO)C1 | -7 | 0.98
O=C(NCCNC(=O)c1nc(-c2ccc(Br)o2)no1)c1ccco1 | -17 | 2.18

SMILES | % Inhibition [%] | Z score
Cc1ncc(NC(=O)C2C3CCC(O3)C2C(F)(F)F)cn1 (stereo unspecified) | -8 | 1.38
O=C1[C@@H]2C3CCCN3C3(C(=O)Nc4ccccc43)[C@@H]2C(=O)N1CCc1ccccc1 (stereo partly specified) | 0 | 0.06
O=C(Nc1ccc2c(c1)OCO2)c1nnc(C(=O)N2CCC(C(=O)NC3CCCCC3)CC2)s1 | -23 | 2.06
CC[C@H]1c2cccn2CCN1C(=O)c1cc(C(C)C)n2ncnc2n1 | 10 | -1.44
N[C@@H](c1ccc(Cl)cc1)c1ccccc1C1CC1 | 22 | -2.83
O=C(O)[C@@H]1C[C@H](O)CCN1C(=O)C(c1ccccc1)c1ccccc1 | 5 | -0.7
Cc1nc2ccc(NC(=O)C[C@@H]3N=C(O)c4ccccc4NC3=O)cc2[nH]1 | 0 | -0.01
CC(C)CCn1cc(C(=O)N2CCc3c(ncn3-c3ccc(F)cc3)C2)nn1 | -6 | 1.21
COc1ccc(C(=O)Nc2cc(F)c3nc(N4CCOCC4)ccc3c2)c(OC)c1 | -1 | 0.1
CN1CCCC[C@@H]1CCC(=O)NCCOCc1ccc(Cl)cc1 | -16 | 1.99
Cc1nnsc1C(=O)N[C@@H](C)c1csnn1 | -5 | 1.01
C=CCNC(=O)CN(c1cccc(Br)c1)S(C)(=O)=O | 0 | 0.05
CN1CCOC(CN(CC2CC2)C(=O)C2CCCc3nn(C)cc32)C1 (stereo unspecified) | -8 | 0.78
O=C(Nc1cccc(OCC(=O)N2CCCC2)c1)c1cc(Cl)cc(Cl)c1 | -9 | 1.67
CCn1cc([C@H]2OCC[C@@H]2CN2CCn3c(nnc3C3CCCC3)C2)cn1 | -8 | 1.45
O=C1C[C@H](N2CCc3ccccc3C2)C(=O)N1CCc1ccccc1 | -4 | 0.51
CCc1noc(C)c1CNC(=O)Cn1nc(C)c2cccnc21 | -11 | 1.24
CCc1nn(C)c(Cl)c1CN1CCC(OCc2cccnc2)CC1 | -3 | 0.5
COc1cccc(-c2cn3c(n2)N(C(=O)C2CCCC2)CCC3)c1 | 1 | -0.21
C=CCN(Cc1snnc1C)S(=O)(=O)c1ccc(OC)cc1 | 3 | -0.49
O=C(c1ccc(=O)[nH]c1)N1CCN(S(=O)(=O)c2ccc(Br)cc2)CC1 | 5 | -0.92
Cc1cc(NC(=O)N2CCCc3ccccc3CC2)n(C)n1 | 1 | -0.13
O=S(=O)(c1ccccc1)N1CCN(S(=O)(=O)N2CCCCCC2)CC1 | 2 | -0.37
Cc1cnc(CCN(C)S(=O)(=O)CCN2CCCC2)s1 | -7 | 0.93
Cn1cc(NCc2cn(C)nc2C(C)(C)C)nn1 | -4 | 0.54
CC(C)CC[C@H](C)NS(=O)(=O)c1ccc(Cl)s1 | 0 | -0.03
